Results: the supplement of paper PMC11417369
± gives the standard deviation of the averaged measurements. The list shows a part of the results.

System: PfAP2-EXP AP2 domain (GST-tagged)
Experiment: gcPBM binding intensity (ln(normalized median fluorescence intensity)); higher = stronger DNA binding
In short: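 GST-tagged P. falciparum DNA-binding domains produced in E. coli were incubated for 1 h on an Agilent 4 × 180k array of primer-extended double-stranded 36-bp intergenic genomic probes with negative controls. Binding intensity is the highest Masliner-normalised natural-log median intensity across replicate spots of either probe orientation, with bound protein detected by Alexa488 anti-GST antibody at 488 nm.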

Sequence | gcPBM binding intensity (ln)
ATACATATGTATATTTGTACATATTAGACAATCTTA [XGTACX_site6706] | 8.36 ± 0.35
TTATTCATTTTTATTTGTACATAATTATATGAAATT [XGTACX_site6389] | 8.59 ± 0.35
TTTTATATTTTATGCACACTTATAAGAAATATGTAC [CACACA_site3040] | 8.905 ± 0.064
ATAATATATATATAAACACACAAAAAAAATTATATA [CACACA_site1534] | 8.69 ± 0.37
TTATGTATTCATTTTTTTTAAGCACCCCAAAATGAT [CACACA_negctrl_site1344] | 8.93
TATTTATTAAAACACACACACACACCCACAAAATAA [CACACA_site241] | 8.87 ± 0.57
ATTTTTTTTTATGATACACACTTGGATAATTAAAAC [CACACA_site4473] | 8.46 ± 0.39
AAGATTAAAAATTGCACACAAAAATATATTTTCTAT [CACACA_site1305] | 8.37 ± 0.36
AATTTCCTTTTTTAAAGTACACAAAAGTTCACTTTG [XGTACX_site4460] | 8.38 ± 0.4
AAATTATATCATTTATTTTTTTATATTTTTTATATT [CACACA_negctrl_site685] | 8.4 ± 0.28
TATAATTTATTAAGGGGTACATATATTTCATGATAA [XGTACX_site5141] | 8.78 ± 0.51
AAATTATATCAATGTTGTACATATTATTTTTTTCTC [XGTACX_site5948] | 8.4 ± 0.34
AAAAAAAAAAATATCACACACACATAAATATAAACC [CACACA_site2278] | 8.77 ± 0.49
AAAAAAAAAAAAAGGTGTACAAGTATAATTACATAA [XGTACX_site534] | 8.52 ± 0.52
TATTTATTGTGATACTTTTATTGTTTAATGATTAAA [CACACA_negctrl_site495] | 8.4 ± 0.33
TAGTATAAAATTATGTGTACACAAATATAACTTTTC [XGTACX_site5971] | 8.61 ± 0.18
TCGTAAACATATTGAAAAATATAAAAAGGGGTAATA [CACACA_negctrl_site619] | 8.53 ± 0.53
TGTACCTTATTAATATATTTAACTCGCCTTATATAC [XGTACX_negctrl_site289] | 8.9 ± 0.44
ATTGGGTACAAATACACACACATATATATATTAATA [CACACA_site2376] | 8.68 ± 0.4
TTGTTAAAAGTATCCATTCTTTATTACTTTTGTTTA [XGTACX_negctrl_site532] | 8.52 ± 0.46
TAAAAAAAATACAAAAGTACACAAAATTATACGTTA [XGTACX_site4656] | 8.51 ± 0.34
AAATAAATACACATATGTACATATTTTATTTTATTT [XGTACX_site2357] | 8.55 ± 0.39
TTAAGATATGTATATCGTACATGACATTAAAAATTT [XGTACX_site3352] | 8.4 ± 0.59

Sequence | gcPBM binding intensity (ln)
AATGGTATAATCAATACACACATAATATATATATTG [CACACA_site1658] | 8.49 ± 0.32
AATCAAAAATCAAACGCATGTAGTATAATAGATAAG [TGCATGCA_site753] | 8.98 ± 0.39
CAAATATAAATATATACATGCATCTATCTATATAAA [TGCATGCA_site369] | 8.35 ± 0.2
AAATTGTAGCACCAAGCATGCTAAAAGGACATATGA [TGCATGCA_site717] | 9.01 ± 0.33
ATCTAAATAATATATATATATAATATTAATAATATA [CACACA_negctrl_site1620] | 8.21 ± 0.47
TTTTTATTTATATATATATATATATATTATATATAA [CACACA_negctrl_site1654] | 8.34 ± 0.36
ATATATTATATAATATGTACATAATAAAATTTAAAT [XGTACX_site1900] | 8.72 ± 0.27
CTTGTCATTGGGCACACACACATGTATAGGTTATTA [CACACA_site3058] | 8.63 ± 0.24
GAGTAAACATATATATGTACATAAAGTTAACATTGC [XGTACX_site2225] | 9.11 ± 0.35
ATTTTTTTTCATATAACACACACACTAATATAATGT [CACACA_site9226] | 8.71 ± 0.32
TGAACACCCACAAATACACACAAAAAAAATAAATAA [CACACA_site248] | 8.54 ± 0.64
AATAAATAAATATATACACACATATCTGTCTACATA [CACACA_site5708] | 8.26 ± 0.46
GGGACAGGACGAAAAAATAAATAAATAAATAAAAAA [CACACA_negctrl_site155] | 8.65 ± 0.53
GTAAAAAAATAGCACACACACAAAAACACGCACAAA [CACACA_site6723] | 8.82 ± 0.32
AATAATTGAAAAACACAAAAATGATTTTCCATAAAT [CACACA_negctrl_site1555] | 8.19 ± 0.35
ACAAGATCTAGATACACACACATATCTCTCAATCTA [CACACA_site6453] | 8.8 ± 0.6
GGAATAGTAATATATACACACAAATACAGATATATA [CACACA_site4213] | 8.78 ± 0.28
AATTGAATTTTAAAAGAAAAAAAAAAAAAAAAATAA [XGTACX_negctrl_site195] | 8.22 ± 0.53
TGGAGGTCAGTTCACAGTACCCAGAAACTCTACGGA [XGTACX_site4927] | 8.43 ± 0.61
TTTTTTCAATTTTTTTTAAATAAACCACAAAAAAAA [CACACA_negctrl_site1701] | 8.22 ± 0.4
AAACTATAATATATTACACACATATATTTTATAAGT [CACACA_site6460] | 8.3 ± 0.38
TAATGTAAAATTTAGAGTACATAAAAAATTGGATGA [XGTACX_site7225] | 8.68 ± 0.33
AAATAAAAAAAGAAACGTACATATATTGGTTTCGTC [XGTACX_site3510] | 8.61 ± 0.43

Sequence | gcPBM binding intensity (ln)
GGTAATTTTTTTTAAATACACACTGAAATGTGAATT [CACACA_site564] | 8.35 ± 0.26
AAAAAAATAAGTATTGAACAATTAAGGAAAAACATG [GTGCAC_negctrl_site464] | 8.89 ± 0.47
CTTATAAAAAAAAAAACATGCAACAGTAAAGAACAA [TGCATGCA_site892] | 9.13 ± 0.4
AACATACATAAACACACACACACACCCACAGAGACA [CACACA_site4430] | 8.66 ± 0.57
CATACAGATATATATACACACATACAGATAAATACA [CACACA_site4592] | 8.79 ± 0.4
AAGGATATAACATACACACACACACCGATATATATA [CACACA_site6136] | 8.81 ± 0.34
TATTTTTTTTTTATATGTACATAATTTCAAATAAAT [XGTACX_site7747] | 8.62 ± 0.48
ATATATCATATTATAGTGCATTTATAATAATATTAT | 8.58 ± 0.24
TATTATCTGTAGTGTACACATATTATATAGTACTTT [CACACA_site4582] | 8.86 ± 0.24
ATAACGATATATGTGCGTACTTATAGAATAAGCAAA [XGTACX_site6743] | 8.68 ± 0.35
AAAATTATATATTATTGTACATAAAATTTTGACATA [XGTACX_site4886] | 8.43 ± 0.38
ATATATATATATATATGTACATATATGTATACCTTA [XGTACX_site6791] | 10.1 ± 0.39
ATAAATACTAGGCACACACACATATATATATATATA [CACACA_site2080] | 10.1 ± 0.47
CAATAGTTCTTATGGGTGCAAACCACATATATATAA [GTGCAC_site9606] | 8.695 ± 0.049
TTTATTTATCTGTATACACACTTTAATGAAAAGTTG [CACACA_site5400] | 8.72 ± 0.42
ACAAATCTAAGATAGTGTACATTTATATATATATAT [XGTACX_site8740] | 9.91 ± 0.31
AATATAAATAAAAACACACACACACCCATATATATA [CACACA_site2267] | 8.9 ± 0.29
TTTATATACACACAGAAGAACAGAAATATTATATAT [TGCATGCA_negctrl_site483] | 8.78 ± 0.54
ATATATATATAATAAACACACACATATACATATATG [CACACA_site9145] | 9.63 ± 0.22
ATTTTTTTTTTTTTTTTTTTTTTTTGGAGAAAGAGA [CACACA_negctrl_site1119] | 8.02 ± 0.64
TATATATATATATAAGTGCATATAAAAATCGTTCGT | 10.3 ± 0.18
TATTATTACGTAATATGTACATATATTTATACCACT [XGTACX_site5918] | 8.95 ± 0.52
AGGAAAAACTTGAATGCATGCGCACATTCTAGTTTG [TGCATGCA_site776] | 8.71 ± 0.21

Sequence | gcPBM binding intensity (ln)
TTATAACACATTACATGTACAAATATAAATATATTC [XGTACX_site6503] | 8.53 ± 0.38
AAAAATATATATAACACACACATAATATATATATAT [CACACA_site2537] | 9.71 ± 0.099
AAAAAAAAAAAAAAATGTACAAAAATTACTATAAAA [XGTACX_site7683] | 8.29 ± 0.36
TTTTTTTTTGTTTACACACACAAAATATTATATGTA [CACACA_site2470] | 8.46 ± 0.42
TATTAATAAAACCGTTGTACTACATACATAAATATT [XGTACX_site5578] | 8.49 ± 0.35
CATTATATGATTTATGTGCACATTCATTTATTTTAA | 8.83 ± 0.099
AAAAATCAATTAGAAGAACACACGTAAATTTTTTTT [CACACA_site2396] | 8.57 ± 0.47
ATACTATATATATAAGTGCATGTTCATTATACCTAA | 8.75 ± 0.31
ATAACTAAATGATATTGTACAAAATAATTATATATT [XGTACX_site1331] | 8.53 ± 0.33
ATATATATTATGTGTGTGCACTTTTGTTATTATTAT | 9 ± 0.33
TAAATGGGTGTTAATGCACACGATATGTCTATATAT [CACACA_site5321] | 8.61 ± 0.34
TATTTATTTTTCTGTTGTACTTTTCAACATGTTACA [XGTACX_site7457] | 8.87 ± 0.47
TCTACATATTAATTATGTACGAATTATTATTAGTAA [XGTACX_site6924] | 8.12 ± 0.28
TATTTATGTTCATATAAACACACGTAAAATTCAAGG [CACACA_site1538] | 8.62 ± 0.39
TCAATAAAAAAAAACGCACACACAAATATATTCCAT [CACACA_site1223] | 8.7 ± 0.56
CATATTCATAAAAGTTGTACATGCAATTTTTTTTTT [XGTACX_site2261] | 8.74 ± 0.38
GTCCCTATAAGGGGAACACACATAAATGGATATATA [CACACA_site6612] | 8.51 ± 0.53
AAATACAAAATTGTTACACACATATTAAGTATGACA [CACACA_site4421] | 8.28 ± 0.44
AACGTTCAATTTAAATGTACAAATGTATTTAAATAT [XGTACX_site315] | 8.42 ± 0.35
AGTTTAGAATTTAATACACACAAAAAAAAAAAATTA [CACACA_site7698] | 8.39 ± 0.39
